According to PubChem BioAssay AID651820 (National Center for Advancing Translational Sciences (NCATS), 2012):
Where “and” joins values, the source holds several entries; their conditions need not be identical. Identical values can stand only once. In all, about 340,000 compounds went through this assay and about 12,000 (3.5%) were called active. The inconclusive results got no clear call from the source; some entries with a clear call stand among them for comparison. Calls come from the whole dose curve; as a rule, active = well fitted inhibition curve with a large enough effect; inconclusive = small, poorly fitted or top-dose-only effect, or another doubt; inactive = no such curve, though single readings can be large or run the other way. Potencies of inconclusive entries are doubtful fits and often do not repeat.

Assay: qHTS Assay for Inhibitors of Hepatitis C Virus (HCV)
Details: Huh7.5.1 HCVcc-Cre (HCVcc is cell-culture hepatitis C virus) infection, luciferase reporter, 44 h; series mostly up to 41.8 µM
In short: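 A cell-based infection assay in which seeded cells (1,000 per well) receive test compound after 4 h, are inoculated with HCVcc-Cre at approximately 0.5 moi, and are incubated 44 h before luminescence detection.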
Potency is the fitted concentration of half-maximal effect; tags give direction and shape of the fitted curve.

| Compound | Potency |
| --- | --- |
| COC(=O)Cn1ccc2cc(S(=O)(=O)N3CCCCCC3)ccc21 | inactive |
| CCCn1c(N2CCN(CC(=O)c3c[nH]c4ccccc34)CC2)nc2c1c(=O)[nH]c(=O)n2C | active: 12.6 µM |
| COc1cccc2c(=O)n(CC(=O)Nc3ccc(F)cc3F)ccc12 | inactive |
| CCCNC(=O)Cc1c(C)n(C(=O)c2ccc(Cl)cc2)c2ccc(OC)cc12 | inconclusive: 17.8 µM [inhibitor, single point] |
| CC(C)CNC(=S)NNC(=O)c1csc2c1CCC(C)C2 (stereo unspecified) | inconclusive: 31.6 µM [inhibitor, single point] |
| COc1ccc(NS(=O)(=O)c2cc(NC(=O)CNC(=O)c3cccc(OC)c3)ccc2C)cc1 | inconclusive: 17.8 µM [inhibitor, partial curve, poor fit] |
| CC(=O)c1c(C)[nH]c(C(=O)CSc2nnc(-c3cccs3)n2Cc2ccccc2)c1C | active: 2.82 µM |
| Cc1cccc(NC(=O)CSCC(=O)Nc2ccccc2N2CCCCC2)c1 | inconclusive: 6.31 µM [inhibitor, partial curve] |
| Cc1cc(C)cc(-n2c(C)cc(/C=C3\C(=N)N4N=C(CC(C)C)SC4=NC3=O)c2C)c1 | inconclusive: 15.8 µM [inhibitor, single point] |
| O=C(Cn1nc(-c2ccc(Cl)cc2)ccc1=O)NCCCN1CCN(Cc2ccccc2)CC1 | inconclusive: 31.6 µM [inhibitor, single point] and inconclusive: 28.2 µM [inhibitor, single point] |
| COc1ccc(CCNC(=O)c2ccc(Cl)cc2Cl)cc1OC | inconclusive: 12.6 µM [inhibitor, partial curve] |
| COc1ccc(Cl)cc1NC(=O)CN(C)CC(=O)N1CC(=O)Nc2ccccc21 | inconclusive: 10 µM [inhibitor, partial curve] |
| Cn1ccsc1=NC(=O)c1ccc(S(=O)(=O)C(F)F)cc1 | inactive |
| O=C(Nc1ncc(Cc2ccccc2)s1)C1=NCCN1 | inactive |
| Cc1ccc(O)c(-c2cc(-c3ccccc3C)[nH]n2)c1 | active: 11.2 µM |
| COCCn1c(-c2ccc(OC)cc2)cnc1SCC(=O)Nc1cc(C)on1 | inconclusive: 6.31 µM [inhibitor, partial curve] |
| CCNC(=O)COC(=O)/C=C/c1cccc(F)c1 | inactive |
| CCn1c(COc2ccc(Cl)cc2)nnc1SCc1ccc(C#N)cc1 | inconclusive: 6.31 µM [inhibitor, partial curve] |
| O=C(CSc1nnnn1-c1ccccc1)CSc1nnnn1-c1ccccc1 | inconclusive: 14.1 µM [inhibitor, partial curve] |
| CN(C)C(=O)CSc1nc(-c2ccccc2)nc2c1CCCC2 | inconclusive: 4.47 µM [inhibitor, full curve] |
| Cc1nc2sccn2c1-c1csc(NCc2ccccc2)n1 | active: 11.2 µM |
| CCN(CC)C(=O)CSc1nc2c(sc(=S)n2-c2ccccc2)c(=O)n1-c1ccccc1OC | inconclusive: 31.6 µM [inhibitor, single point] |

| Compound | Potency |
| --- | --- |
| CCC(=O)Nc1ccc(N/C(N)=N/c2nc(C)cc(C)n2)cc1 | inconclusive: 10 µM [inhibitor, partial curve] |
| Cc1ccc(-c2[nH]nc(N)c2N=Nc2cccc(Cl)c2C)cc1 | inconclusive: 11.2 µM [inhibitor, partial curve] |
| Cc1ccc(CS(=O)Cc2ccc(C(=O)N3CCN(c4ccc(F)cc4)CC3)o2)cc1 (stereo unspecified) | inconclusive: 31.6 µM [inhibitor, single point] |
| Cc1nn(Cc2c(F)c(F)c(F)c(F)c2F)c(C)c1NC(=O)c1cccc(COc2ccc(Cl)cc2)c1 | inconclusive: 1.78 µM [inhibitor, full curve] |
| CC(C)(C)C1CCc2c(sc(NC(=O)CSc3ncn[nH]3)c2C#N)C1 (stereo unspecified) | inconclusive: 31.6 µM [inhibitor, single point] |
| CC(Sc1nc2ccccc2c(=O)n1C)C(=O)N(C)C1CCCCC1 (stereo unspecified) | inconclusive: 3.16 µM [inhibitor, partial curve] |
| O=C(NC1CC2CCCC(C1)N2Cc1ccco1)NC12CC3CC(CC(C3)C1)C2 (stereo unspecified) | inconclusive: 31.6 µM [inhibitor, partial curve] |
| COc1ccc(-c2cc(C3CCN(c4ncccc4[N+](=O)[O-])CC3)[nH]n2)cc1 | inconclusive: 14.1 µM [inhibitor, single point] |
| O=C(NCCc1ccccc1)C1CCC(CNc2nc(=S)[nH]c3ccccc23)CC1 (stereo unspecified) | inconclusive: 3.55 µM [inhibitor, partial curve] |
| CCOc1c(C)cnc2c1c(=O)n(Cc1ccccc1Cl)c(=O)n2C | inactive |
| COc1ccc(CCNC(=O)C2CCN(Cc3nc(-c4ccccc4C)oc3C)CC2)cc1OC | active: 7.94 µM |
| CN1CCN(C=Nc2nc3ccccc3nc2N2CCCC2)CC1 | inactive |
| C=CCn1c(SCC(=O)NC2CCCC2)nc2scc(-c3ccco3)c2c1=O | inconclusive: 31.6 µM [inhibitor, single point] |
| CCOC(=O)c1c(NC(=O)CC2Nc3cc(C)c(C)cc3NC2=O)sc(C)c1C (stereo unspecified) | inconclusive: 3.55 µM [inhibitor, single point] |
| O=C1/C(=C\c2ccc(Br)o2)Cc2ccccc21 | inactive |
| COc1cc(NC(=O)Cn2nnc(-c3ccncc3)n2)cc(OC)c1 | inconclusive: 10 µM [inhibitor, partial curve] |
| N#CCC(CNc1ncc(C(F)(F)F)cc1Cl)OC(=O)c1ccc(Cl)cc1 (stereo unspecified) | inconclusive: 2 µM [inhibitor, partial curve] |
| O=S(=O)(Cc1cc(NCc2ccccc2)nc(-c2ccncc2)n1)c1ccccc1 | inconclusive: 2.82 µM [inhibitor, partial curve] |
| COc1ccc(-c2c/c(=N\c3nc(-c4ccccc4)c(C)s3)c3ccccc3o2)cc1O | inconclusive: 2.82 µM [inhibitor, single point] |
| O=C(Nc1ccccc1N1CCCCC1)c1ccc2nccnc2c1 | inconclusive: 10 µM [inhibitor, partial curve] |
| CCN(C(=O)COc1cccc(-n2cnnn2)c1)C1CCS(=O)(=O)C1 (stereo unspecified) | inactive |
| O=C(N/N=C/c1ccc(OCc2ccccc2)cc1)c1cccs1 | inactive |

| Compound | Potency |
| --- | --- |
| CNC(=S)N/N=C(\C)c1ccc(C)c(C)c1 | inconclusive: 15.8 µM [inhibitor, single point] |
| CC(OCC(O)CN(C)Cc1nc2ccccc2c(=O)[nH]1)c1ccc(Cl)cc1 (stereo unspecified) | active: 10 µM |
| FCCCOc1ccc(CN2CCN(c3ccccc3F)CC2)cc1 | inconclusive: 35.5 µM [inhibitor, partial curve, poor fit] |
| CCc1cc(=O)oc2cc3occ(-c4ccc(OC)c(F)c4)c3cc12 | inconclusive: 2.51 µM [inhibitor, full curve] |
| COc1ccc(-c2cc(C3CCN(c4ccc(C(C)=O)cc4[N+](=O)[O-])CC3)[nH]n2)cc1 | active: 11.2 µM |
| O=C(c1cc(-c2ccccc2Cl)nc2ccccc12)N1CCN(c2ccccc2O)CC1 | inconclusive: 15.8 µM [inhibitor, partial curve, poor fit] |
| CCOc1cc(N2CCOCC2)c(OCC)cc1NC(=O)c1cccc(S(=O)(=O)N2CCOCC2)c1 | inconclusive: 10 µM [inhibitor, partial curve] |
| CN(CC(=O)Nc1ccc(Cl)cc1)C(=O)CCNC(=O)c1ccc(Cl)cc1 | inconclusive: 22.4 µM [inhibitor, single point] |
| Cc1c(NC(=O)C(C)OC(=O)COc2ccc(C#N)cc2)c(=O)n(-c2ccccc2)n1C (stereo unspecified) | inactive |
| COc1ccccc1C(=O)Nc1cc(C)ccc1NC(=O)c1ccco1 | inconclusive: 22.4 µM [inhibitor, single point] |
| COc1ccc(OC)c(/C=N/NC(=O)C(O)c2ccccc2)c1 (stereo unspecified) | inconclusive: 3.55 µM [inhibitor, partial curve] |
| CCOC(=O)C1CCN(C(=O)CCCn2nc(CC)n3c(cc4occc43)c2=O)CC1 | inconclusive: 11.2 µM [inhibitor, partial curve] |
| CN1/C(=C\C(=O)COC(=O)CNC(=O)c2ccc3ccccc3c2)C(C)(C)c2ccccc21 | inconclusive: 5.62 µM [inhibitor, single point] |
| Cc1ccc(/C=N/NC(=O)CSc2nnc(-c3ccccc3)n2-c2ccc(Cl)cc2)o1 | inconclusive: 31.6 µM [inhibitor, single point] |
| COC(=O)C1=C(c2ccc(F)cc2OCc2ccccc2)C[C@@H]2CC[C@H]1N2C(=O)N1CCC(O)(c2ccc(Cl)cc2)CC1 | inconclusive: 10 µM [inhibitor, partial curve] |
| Cc1ccc(NS(=O)(=O)c2ccc(NC(=O)C3CC3)cc2)cc1C | inconclusive: 12.6 µM [inhibitor, single point] |
| Nc1nc(Cl)cc(Sc2ccc(F)cc2)n1 | inactive |
| CCOc1ccc(/C=C/C(=O)c2cc(Br)ccc(=O)c2O)cc1 | inconclusive: 15.8 µM [inhibitor, single point] |
| Cc1ccc(NC(=O)c2cc3c(s2)CCC3)cc1S(=O)(=O)N1CCOCC1 | active: 7.94 µM |
| OC(CNc1ccnc2cc(Cl)ccc12)CNC1CCCCC1 (stereo unspecified) | inconclusive: 1.12 µM [inhibitor, full curve] |
| COc1ccc(NC(=O)CSc2nnc(-c3ccccc3)n2Cc2ccco2)cc1OC | inconclusive: 2.24 µM [inhibitor, single point] |
| COc1ccc(C)cc1NS(=O)(=O)c1ccc(-c2cnc(C3CC3)o2)cc1 | inconclusive: 3.16 µM [inhibitor, partial curve] |
